The other results are listed elsewhere or left out.

One experiment concerns HSkMC. As to the kind of experiment: cytotoxicity call (relative viability < 0.9). The note with it: 10 µM.
Another experiment relates to S. aureus RN4220. As to the kind of experiment: growth inhibition call (relative growth <= 0.2). The following applies: 50 µM.

For the molecule `COc1ccc(-c2oc3cc(O[C@@H]4O[C@@H](C)[C@H](O)[C@@H](O)[C@H]4O)cc(O)c3c(=O)c2O[C@@H]2O[C@H](CO)[C@@H](O)[C@H](O)[C@H]2O)cc1`, the cytotoxicity call in the experiment with HSkMC was “inactive”. Besides, the growth inhibition call with S. aureus RN4220 is “inactive”.

In the case of `COc1ccc(Br)cc1S(=O)(=O)NC(=O)/C=C/c1ccccc1Cc1ccc2ccccc2c1`, the cytotoxicity call in the experiment with HSkMC was “inactive”. In addition, in the experiment on S. aureus RN4220, the growth inhibition call was “inactive”.

With `C[C@H]1CN([C@@H](C)CO)C(=O)c2cc(NC(=O)C3CCCCC3)ccc2O[C@@H]1CN(C)Cc1ccc(Oc2ccccc2)cc1`, the cytotoxicity call in the experiment on HSkMC was “inactive”. Moreover, in the experiment on S. aureus RN4220, the growth inhibition call is “inactive”.

For the molecule `Cc1ccc(S(=O)(=O)N(C)C[C@H]2Oc3cc(Br)ccc3S(=O)(=O)N([C@@H](C)CO)C[C@H]2C)cc1`, the cytotoxicity call with HSkMC was “inactive”. Also, the growth inhibition call with S. aureus RN4220 was “inactive”.

Regarding `C[C@@H]1CN([C@@H](C)CO)S(=O)(=O)c2ccc(Br)cc2O[C@H]1CN(C)C(=O)Nc1ccc2c(c1)OCO2`, the cytotoxicity call in the experiment with HSkMC was “inactive”. The growth inhibition call in the experiment with S. aureus RN4220 was “inactive”.

For `CC(=O)N1[C@@H](CO)[C@H](c2ccccc2)[C@@H]1CNC(=O)CN1CCOCC1`, the cytotoxicity call in the experiment on HSkMC was “inactive”. Also, in the experiment with S. aureus RN4220, the growth inhibition call is “inactive”.

For `C[C@H](CO)N1C[C@H](C)[C@@H](CN(C)S(C)(=O)=O)OCCCC[C@H](C)Oc2ccc(NS(C)(=O)=O)cc2C1=O`, in the experiment on HSkMC, the cytotoxicity call is “inactive”. Further, the growth inhibition call in the experiment with S. aureus RN4220 was “inactive”.

With `C[C@H](CO)N1C[C@H](C)[C@H](CN(C)C(=O)c2ccccc2F)Oc2ncc(C#Cc3ccncc3)cc2C1=O`, the cytotoxicity call with HSkMC is “inactive”. For the same molecule, the growth inhibition call in the experiment on S. aureus RN4220 was “inactive”.

Consider `COc1cc(-c2cc(=O)c3c(s2)N(c2ccc(OC)c(OC)c2)[C@@H](c2ccc(O)c(OC)c2)CC3=O)ccc1O`, for which, in the experiment on HSkMC, the cytotoxicity call was “inactive”. Also, in the experiment with S. aureus RN4220, the growth inhibition call was “inactive”.

In the case of `CN(CC=CC#CC(C)(C)C)Cc1cccc2ccccc12.Cl`, the cytotoxicity call in the experiment with HSkMC is “inactive”. In addition, the growth inhibition call with S. aureus RN4220 is “inactive”.

As for `OC[C@@H]1CC[C@@H]2O[C@H](CCc3ccc(C#CCc4ccccc4)cc3)[C@@H](n3cc(-c4ccccc4)nn3)C[C@@H]2O1`, the cytotoxicity call with HSkMC is “inactive”. The growth inhibition call with S. aureus RN4220 is “inactive”.

Consider `COc1ccc(S(=O)(=O)N(C)C[C@@H]2OCCCC[C@H](C)Oc3ccc(NC(=O)Nc4c(C)noc4C)cc3C(=O)N([C@@H](C)CO)C[C@H]2C)cc1`, for which, in the experiment with HSkMC, the cytotoxicity call was “inactive”. Also, the growth inhibition call with S. aureus RN4220 was “inactive”.

Turning to `C[C@H]1CN([C@@H](C)CO)C(=O)c2cc(NC(=O)Cn3cnnn3)ccc2O[C@@H]1CN(C)S(=O)(=O)c1ccc(F)cc1`, in the experiment with HSkMC, the cytotoxicity call is “inactive”. The growth inhibition call in the experiment with S. aureus RN4220 was “inactive”.

Regarding `C[C@@H]1CCCCO[C@@H](CN(C)C(=O)Nc2cccc3ccccc23)[C@@H](C)CN([C@H](C)CO)C(=O)c2cc(NS(=O)(=O)c3cn(C)cn3)ccc2O1`, in the experiment on HSkMC, the cytotoxicity call was “inactive”. In the experiment on S. aureus RN4220, the growth inhibition call was “inactive”.

In the case of `COc1ccc(CN(C)C[C@H]2OCCCC[C@H](C)Oc3ccc(NS(=O)(=O)c4ccc(OC)cc4)cc3C(=O)N([C@H](C)CO)C[C@H]2C)cc1`, the cytotoxicity call in the experiment with HSkMC was “inactive”. In the experiment with S. aureus RN4220, the growth inhibition call was “inactive”.

Turning to `Cc1noc(C)c1S(=O)(=O)Nc1ccc2c(c1)C(=O)N([C@H](C)CO)C[C@H](C)[C@H](CN(C)S(=O)(=O)c1ccc(Cl)cc1)O2`, in the experiment on HSkMC, the cytotoxicity call was “inactive”. The growth inhibition call in the experiment on S. aureus RN4220 was “inactive”.

As for `COCCN1C[C@H]2[C@H](OC)CCN(S(=O)(=O)c3cn(C)cn3)[C@H]2C1`, in the experiment with HSkMC, the cytotoxicity call was “inactive”. Moreover, in the experiment with S. aureus RN4220, the growth inhibition call was “inactive”.

Consider `COc1ccc(S(=O)(=O)Nc2ccc3c(c2)C(=O)N([C@H](C)CO)C[C@@H](C)[C@H](CN(C)C(=O)NC2CCCCC2)OCCCC[C@H](C)O3)cc1`, for which the cytotoxicity call in the experiment on HSkMC was “inactive”. Besides, in the experiment with S. aureus RN4220, the growth inhibition call is “inactive”.

With `COC[C@H]1C[C@@H](c2nc(-c3ccc4c(c3)COc3cc5c(ccc6[nH]c([C@@H]7CC[C@H](C)N7C(=O)[C@@H](NC(=O)OC)C(C)C)nc65)cc3-4)c[nH]2)N(C(=O)[C@H](NC(=O)OC)c2ccccc2)C1`, in the experiment with HSkMC, the cytotoxicity call was “inactive”. Besides, the growth inhibition call with S. aureus RN4220 was “inactive”.

`CCCn1c(=O)[nH]c2nc(-c3ccc(S(=O)(=O)N4CCN(c5ccc(Cl)cc5)CC4)cc3)[nH]c2c1=O`: the cytotoxicity call with HSkMC is “active”. Further, in the experiment on S. aureus RN4220, the growth inhibition call was “inactive”.

With `C[C@H](CO)N1C[C@H](C)[C@@H](CN(C)Cc2cccc(C(F)(F)F)c2)OCc2ccccc2-c2ccccc2C1=O`, in the experiment with HSkMC, the cytotoxicity call is “inactive”. In the experiment on S. aureus RN4220, the growth inhibition call is “inactive”.

Take `CO[C@H](CN(C)S(=O)(=O)c1cn(C)cn1)[C@H](C)CN(C(=O)Nc1ccc(C(F)(F)F)cc1)[C@@H](C)CO`: the cytotoxicity call in the experiment on HSkMC is “inactive”. Also, in the experiment on S. aureus RN4220, the growth inhibition call was “active”.

In the case of `C[C@H](CO)N1C[C@H](C)[C@@H](CN(C)Cc2ccc(C(=O)Nc3ccccc3N)cc2)OCc2cnnn2CCCC1=O`, the cytotoxicity call in the experiment on HSkMC was “inactive”. The growth inhibition call with S. aureus RN4220 is “inactive”.

Regarding `COc1ccc(NC(=O)N2C[C@H](O)COC[C@@H]3O[C@@H](CC(=O)NCc4ccccc4OC)CC[C@H]32)cc1`, in the experiment on HSkMC, the cytotoxicity call was “inactive”. For the same molecule, in the experiment on S. aureus RN4220, the growth inhibition call was “inactive”.

With `C[C@H]1CN([C@@H](C)CO)C(=O)Cc2cc(NS(=O)(=O)c3cccs3)ccc2O[C@H]1CN(C)Cc1ccc(-c2ccccc2)cc1`, the cytotoxicity call in the experiment on HSkMC is “inactive”. Moreover, the growth inhibition call with S. aureus RN4220 was “inactive”.

Turning to `Cc1ccc(S(=O)(=O)NCC[C@H]2CC[C@@H](NS(=O)(=O)c3ccccc3Cl)[C@@H](CO)O2)cc1`, in the experiment on HSkMC (human skeletal muscle cells), the cytotoxicity call is “inactive”. The growth inhibition call in the experiment on S. aureus RN4220 was “inactive”.

For the origin of these results see the antibiotic and cytotoxicity screens of Wong et al. (2023).
